According to the supplement of paper PMC12423691:
The other results are listed elsewhere or left out. Binding of human transcription factors and regulators to the viral nucleoprotein by AlphaScreen, crude cell-free proteins, amounts not normalised, one pass. Fold of the Venus control; higher = more signal. No active / inactive call. Single-pass screen; sequences are the whole Swiss-Prot entries looked up by name.

B1: FOXD3, Q9UJU5 (protein)
chain: MTLSGGGSASDMSGQTVLTAEDVDIDVVGEGDDGLEEKDSDAGCDSPAGPPELRLDEADEVPPAAPHHGQPQPPHQQPLTLPKEAAGAGAGPGGDVGAPEADGCKGGVGGEEGGASGGGPGAGSGSAGGLAPSKPKNSLVKPPYSYIALITMAILQSPQKKLTLSGICEFISNRFPYYREKFPAWQNSIRHNLSLNDCFVKIPREPGNPGKGNYWTLDPQSEDMFDNGSFLRRRKRFKRHQQEHLREQTALMMQSFGAYSLAAAAGAAGPYGRPYGLHPAAAAGAYSHPAAAAAAAAAAALQYPYALPPVAPVLPPAVPLLPSGELGRKAAAFGSQLGPGLQLQLNSLGAAAAAAGTAGAAGTTASLIKSEPSARPSFSIENIIGGGPAAPGGSAVGAGVAGGTGGSGGGSTAQSFLRPPGTVQSAALMATHQPLSLSRTTATIAPILSVPLSGQFLQPAASAAAAAAAAAQAKWPAQ
B2: SIM2, Q14190 (protein)
chain: MKEKSKNAAKTRREKENGEFYELAKLLPLPSAITSQLDKASIIRLTTSYLKMRAVFPEGLGDAWGQPSRAGPLDGVAKELGSHLLQTLDGFVFVVASDGKIMYISETASVHLGLSQVELTGNSIYEYIHPSDHDEMTAVLTAHQPLHHHLLQEYEIERSFFLRMKCVLAKRNAGLTCSGYKVIHCSGYLKIRQYMLDMSLYDSCYQIVGLVAVGQSLPPSAITEIKLYSNMFMFRASLDLKLIFLDSRVTEVTGYEPQDLIEKTLYHHVHGCDVFHLRYAHHLLLVKGQVTTKYYRLLSKRGGWVWVQSYATVVHNSRSSRPHCIVSVNYVLTEIEYKELQLSLEQVSTAKSQDSWRTALSTSQETRKLVKPKNTKMKTKLRTNPYPPQQYSSFQMDKLECGQLGNWRASPPASAAAPPELQPHSESSDLLYTPSYSLPFSYHYGHFPLDSHVFSSKKPMLPAKFGQPQGSPCEVARFFLSTLPASGECQWHYANPLVPSSSSPAKNPPEPPANTARHSLVPSYEAPAAAVRRFGEDTAPPSFPSCGHYREEPALGPAKAARQAARDGARLALARAAPECCAPPTPEAPGAPAQLPFVLLNYHRVLARRGPLGGAAPAASGLACAPGGPEAATGALRLRHPSPAATSPPGAPLPHYLGASVIITNGR
B3: FOXD4L6, Q3SYB3 (protein)
chain: MNLPRAERLRSTPQRSLRDSDGEDGKIDVLGEEEDEDEVEDEEEAASQQFLEQSLQPGLQVARWGGVALPREHIEGGGGPSDPSEFGTKFRAPPRSAAASEDARQPAKPPYSYIALITMAILQNPHKRLTLSGICAFISGRFPYYRRKFPAWQNSIRHNLSLNDCFVKIPREPGHPGKGNYWSLDPASQDMFDNGSFLRRRKRFKRHQLTPGAHLPHPFPLPAAHAALHNPHPGPLLGAPAPPQPVPGAYPNTAPGRRPYALLHPHPLRYLLLSAPVYAGAPKKAEGAALATPAPFPCCSPHLVLSLGRRARVWRRHREADASLSALRVLCKGSGERVQGLRRVCPRPRGATATCSSDHQACCIPRPLPLCCKCPPPPLLGQFCSNSSSIRRRTAPTAALPPRARCWAGTCRPRRPC
B4: NEUROG1, Q92886 (protein)
chain: MPARLETCISDLDCASSSGSDLSGFLTDEEDCARLQQAASASGPPAPARRGAPNISRASEVPGAQDDEQERRRRRGRTRVRSEALLHSLRRSRRVKANDRERNRMHNLNAALDALRSVLPSFPDDTKLTKIETLRFAYNYIWALAETLRLADQGLPGGGARERLLPPQCVPCLPGPPSPASDAESWGSGAAAASPLSDPSSPAASEDFTYRPGDPVFSFPSLPKDLLHTTPCFIPYH
B5: ELF5, Q9UKW6 (protein)
chain: MPSLPHSHRVMLDSVTHSTFLPNASFCDPLMSWTDLFSNEEYYPAFEHQTACDSYWTSVHPEYWTKRHVWEWLQFCCDQYKLDTNCISFCNFNISGLQLCSMTQEEFVEAAGLCGEYLYFILQNIRTQGYSFFNDAEESKATIKDYADSNCLKTSGIKSQDCHSHSRTSLQSSHLWEFVRDLLLSPEENCGILEWEDREQGIFRVVKSEALAKMWGQRKKNDRMTYEKLSRALRYYYKTGILERVDRRLVYKFGKNAHGWQEDKL
B6: ZNF382, Q96SR6 (protein)
chain: MPLQGSVSFKDVTVDFTQEEWQQLDPAQKALYRDVMLENYCHFVSVGFHMAKPDMIRKLEQGEELWTQRIFPSYSYLEEDGKTEDVLVKFKEYQDRHSRPLIFINHKKLIKERSNIYGKTFTLGKNRISKTILCEYKPDGKVLKNISELVIRNISPIKEKFGDSTGWEKSLLNTKHEKIHPAVNLHKQTERVLSGKQELIQHQKVQAPEQPFDHNECEKSFLMKGMLFTHTRAHRGERTFEYNKDGIAFIEKSSLSVHPSNLMEKKPSAYNKYGKFLCRKPVFIMPQRPQTEEKPFHCPYCGNNFRRKSYLIEHQRIHTGEKPYVCNQCGKAFRQKTALTLHEKTHIEGKPFICIDCGKSFRQKATLTRHHKTHTGEKAYECPQCGSAFRKKSYLIDHQRTHTGEKPYQCNECGKAFIQKTTLTVHQRTHTGEKPYICNECGKSFCQKTTLTLHQRIHTGEKPYICNECGKSFRQKAILTVHHRIHTGEKSNGCPQCGKAFSRKSNLIRHQKTHTGEKPYECKQCGKFFSCKSNLIVHQKTHKVETTGIQ
B7: ZNF542P, Q5EBM4 (protein)
chain: MLENYQNLVWLGLSISKSVISLLEKRKLPWIMAKEEIRGPLPGYFKVSEMTISQEPKAKTRTLFGKDVPGAEIKELSAKRAINEVLSQFDTVIKCTRNVCKECGNLYCHNMQLTLHKRNHTQKKCNQCLDCGKYFTRQSTLIQHQRIHTGERPYKCNECIKTFNQRAHLT
B8: NLRC4, Q9NPP4 (protein)
chain: MNFIKDNSRALIQRMGMTVIKQITDDLFVWNVLNREEVNIICCEKVEQDAARGIIHMILKKGSESCNLFLKSLKEWNYPLFQDLNGQSLFHQTSEGDLDDLAQDLKDLYHTPSFLNFYPLGEDIDIIFNLKSTFTEPVLWRKDQHHHRVEQLTLNGLLQALQSPCIIEGESGKGKSTLLQRIAMLWGSGKCKALTKFKFVFFLRLSRAQGGLFETLCDQLLDIPGTIRKQTFMAMLLKLRQRVLFLLDGYNEFKPQNCPEIEALIKENHRFKNMVIVTTTTECLRHIRQFGALTAEVGDMTEDSAQALIREVLIKELAEGLLLQIQKSRCLRNLMKTPLFVVITCAIQMGESEFHSHTQTTLFHTFYDLLIQKNKHKHKGVAASDFIRSLDHCGDLALEGVFSHKFDFELQDVSSVNEDVLLTTGLLCKYTAQRFKPKYKFFHKSFQEYTAGRRLSSLLTSHEPEEVTKGNGYLQKMVSISDITSTYSSLLRYTCGSSVEATRAVMKHLAAVYQHGCLLGLSIAKRPLWRQESLQSVKNTTEQEILKAININSFVECGIHLYQESTSKSALSQEFEAFFQGKSLYINSGNIPDYLFDFFEHLPNCASALDFIKLDFYGGAMASWEKAAEDTGGIHMEEAPETYIPSRAVSLFFNWKQEFRTLEVTLRDFSKLNKQDIRYLGKIFSSATSLRLQIKRCAGVAGSLSLVLSTCKNIYSLMVEASPLTIEDERHITSVTNLKTLSIHDLQNQRLPGGLTDSLGNLKNLTKLIMDNIKMNEEDAIKLAEGLKNLKKMCLFHLTHLSDIGEGMDYIVKSLSSEPCDLEEIQLVSCCLSANAVKILAQNLHNLVKLSILDLSENYLEKDGNEALHELIDRMNVLEQLTALMLPWGCDVQGSLSSLLKHLEEVPQLVKLGLKNWRLTDTEIRILGAFFGKNPLKNFQQLNLAGNRVSSDGWLAFMGVFENLKQLVFFDFSTKEFLPDPALVRKLSQVLSKLTFLQEARLVGWQFDDDDLSVITGAFKLVTA
B9: SETD6, Q8TBK2 (protein)
chain: MATQAKRPRVAGPVDGGDLDPVACFLSWCRRVGLELSPKVSERAGGRRTRGGARAALTSPPAQVAVSRQGTVAGYGMVARESVQAGELLFVVPRAALLSQHTCSIGGLLERERVALQSQSGWVPLLLALLHELQAPASRWRPYFALWPELGRLEHPMFWPEEERRCLLQGTGVPEAVEKDLANIRSEYQSIVLPFMEAHPDLFSLRVRSLELYHQLVALVMAYSFQEPLEEEEDEKEPNSPVMVPAADILNHLANHNANLEYSANCLRMVATQPIPKGHEIFNTYGQMANWQLIHMYGFVEPYPDNTDDTADIQMVTVREAALQGTKTEAERHLVYERWDFLCKLEMVGEEGAFVIGREEVLTEEELTTTLKVLCMPAEEFRELKDQDGGGDDKREEGSLTITNIPKLKASWRQLLQNSVLLTLQTYATDLKTDQGLLSNKEVYAKLSWREQQALQVRYGQKMILHQLLELTS
B10: SMAD3, P84022 (protein)
chain: MSSILPFTPPIVKRLLGWKKGEQNGQEEKWCEKAVKSLVKKLKKTGQLDELEKAITTQNVNTKCITIPRSLDGRLQVSHRKGLPHVIYCRLWRWPDLHSHHELRAMELCEFAFNMKKDEVCVNPYHYQRVETPVLPPVLVPRHTEIPAEFPPLDDYSHSIPENTNFPAGIEPQSNIPETPPPGYLSEDGETSDHQMNHSMDAGSPNLSPNPMSPAHNNLDLQPVTYCEPAFWCSISYYELNQRVGETFHASQPSMTVDGFTDPSNSERFCLGLLSNVNRNAAVELTRRHIGRGVRLYYIGGEVFAECLSDSAIFVQSPNCNQRYGWHPATVCKIPPGCNLKIFNNQEFAALLAQSVNQGFEAVYQLTRMCTIRMSFVKGWGAEYRRQTVTSTPCWIELHLNGPLQWLDKVLTQMGSPSIRCSSVS

molecular target: nucleoprotein N of Crimean-Congo hemorrhagic fever virus; experiment: AlphaScreen luminescence signal relative to Venus negative control (fold); higher = stronger binding to CCHFV N
Description: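 AlphaScreen binding of cell-free made, FLAG-GST-tagged human transcription factors and regulators (crude translation products) to biotinylated N protein; signal as fold of the FLAG-GST-Venus control. One pass.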

Binder	AlphaScreen luminescence signal
B1	1.02
B2	2.65
B3	1.81
B4	5.4
B5	3.72
B6	3.26
B7	1.53
B8	2.47
B9	1.72
B10	5.35
